# Measured values as given in US20180015075A1, “METHODS AND COMPOSITIONS FOR TREATMENT OF VENOUS MALFORMATION” (Children's Hospital Medical Center, priority 2016, published 2018).
# Where a name gives a salt, the structure may show the parent alone. Read-outs that look alike come from different tables or passages of the source.
# How the values were obtained:
# [1] = system: HUVEC-TIE2-L914F; conditions: for proliferation inhibition of HUVEC-TIE2-L914F relative to rapamycin: in vitro drug screening
# [2] = system: HUVEC-TIE2-WT; conditions: for Combination Index (CI) with rapamycin, WT: ABL kinase inhibitor 10 μM to 30 nM combined with rapamycin 10 nM
# [3] = system: HUVEC-TIE2-L914F; test: cells; conditions: Homo sapiens; for inhibition at 20 µM: read-out: Average proliferation Inhibition rate (%) L914F; for IC50: read-out: IC50 L914F
# [4] = system: HUVEC-TIE2-WT; test: cells; conditions: Homo sapiens; for inhibition at 20 µM: read-out: Average proliferation Inhibition rate (%) WT; for IC50: read-out: IC50 WT
Compound,inhibition at 20 µM [3] [%],inhibition at 20 µM [4] [%],other results
N.N.[Cl][Pt][Cl] [Cisplatin],–,–,Average proliferation Inhibition rate (%) L914F ([1]; 20 uM): 1.15%; Average proliferation Inhibition rate (%) WT ([2]; 20 uM): −6.87%
Dabrafenib mesylate [Dabrafenib-mesylate],–,–,"Average proliferation Inhibition rate (%) L914F ([1]; 20 uM): 40.95%; IC50 ([1]; read-out: IC50 L914F, 6 dilution doses from 10 μM to 30 nM): > 10 µM; Average proliferation Inhibition rate (%) WT ([2]; 20 uM): −6.26%; IC50 ([2]; read-out: IC50 WT, 6 dilution doses from 10 μM to 30 nM): > 10 µM"
"CO[C@H]1C[C@@H]2CC[C@@H](C)[C@@](O)(O2)C(=O)C(=O)N2CCCC[C@H]2C(=O)O[C@H]([C@H](C)C[C@@H]2CC[C@@H](OC(=O)C(C)(CO)CO)[C@H](OC)C2)CC(=O)[C@H](C)/C=C(\C)[C@@H](O)[C@@H](OC)C(=O)[C@H](C)C[C@H](C)/C=C/C=C/C=C/1C [Temsirolimus, 42-[3-Hydroxy-2-(hydroxymethyl)-2-methylpropanoate]-rapamycin]",58.3,31.5,proliferation inhibition of HUVEC-TIE2-L914F relative to rapamycin [1]: same effectiveness as rapamycin; IC50 [4]: < 0.03 µM
"COc1cc(Nc2c(C#N)cnc3cc(OCCCN4CCN(C)CC4)c(OC)cc23)c(Cl)cc1Cl [Bosutinib, 4-((2,4-Dichloro-5-methoxyphenyl)amino)-6-methoxy-7-(3-(4-methyl-1-piperazinyl)propoxy)3-quinolinecarbonitrile]",57.6,36.2,"Combination Index (CI) with rapamycin, WT [2]: 1.72 ± 0.41; IC50 [3]: 3.54 ± 1.14 µM; IC50 [4]: 4.1 ± 0.68 µM"
Bleomycin sulfate,–,–,Average proliferation Inhibition rate (%) L914F ([1]; 20 µM): 49.04%; Average proliferation Inhibition rate (%) WT ([2]; 20 µM): 29.04%
Nc1ncn([C@@H]2O[C@H](CO)[C@@H](O)[C@H]2O)c(=O)n1 [Azacitidine],42.6,31.5,–
COc1c2occc2cc2ccc(=O)oc12 [Methoxsalen],-0.04,-1.69,–
O=P1(NCCCl)OCCCN1CCCl (centres unmarked) [Ifosfamide],4.47,-0.66,–
C[C@]12CC[C@@H]3c4ccc(OC(=O)N(CCCl)CCCl)cc4CC[C@H]3[C@@H]1CC[C@@H]2OP(=O)(O)O [Estramustine phosphate sodium],-2.46,-3.54,–
CO[C@H]1C(=O)[C@]2(C)[C@@H](OC)C[C@H]3OC[C@@]3(OC(C)=O)[C@H]2[C@H](OC(=O)c2ccccc2)[C@]2(O)C[C@H](OC(=O)[C@H](O)[C@@H](NC(=O)OC(C)(C)C)c3ccccc3)C(C)=C1C2(C)C [Cabazitaxel],21.1,32.4,–
O=NN(CCCl)C(=O)NC1CCCCC1 [Lomustine],12,11.4,–
O=c1[nH]c(=O)n([C@H]2C[C@H](O)[C@@H](CO)O2)cc1F [Floxuridine],19.6,10.7,–
CC1=C(/C=C/C(C)=C/C=C/C(C)=C/C(=O)O)C(C)(C)CCC1 [Tretinoin],0.11,-7.14,–
O=c1[nH]cc(F)c(=O)[nH]1 [Fluorouracil],32.7,16.4,–
C/C=C1\NC(=O)[C@H]2CSSCC/C=C/[C@H](CC(=O)N[C@H](C(C)C)C(=O)N2)OC(=O)[C@H](C(C)C)NC1=O [Romidepsin],29.7,39.1,–
S=c1nc[nH]c2nc[nH]c12 [Mercaptopurine],10.9,0.45,–
CC(C)C[C@H](NC(=O)[C@H](Cc1ccccc1)NC(=O)c1cnccn1)B(O)O [Bortezomib],81,69.5,–
N#Cc1ccc(C(c2ccc(C#N)cc2)n2cncn2)cc1 [Letrozole],6.07,-0.85,–
O=C(c1ccc(OCCN2CCCCC2)cc1)c1c(-c2ccc(O)cc2)sc2cc(O)ccc12 [Raloxifene],7.46,28.2,–
CC/C(=C(\c1ccccc1)c1ccc(OCCN(C)C)cc1)c1ccccc1 [Tamoxifen citrate],10.4,37.3,–
CC(C)(C#N)c1cc(Cn2cncn2)cc(C(C)(C)C#N)c1 [Anastrozole],3.95,-1.07,–
CC(=O)O[C@@]12CO[C@@H]1C[C@H](O)[C@@]1(C)C(=O)[C@H](O)C3=C(C)[C@@H](OC(=O)[C@H](O)[C@@H](NC(=O)OC(C)(C)C)c4ccccc4)C[C@@](O)([C@@H](OC(=O)c4ccccc4)[C@H]21)C3(C)C [Docetaxel],18.4,31.5,–
"Cc1nc(Nc2ncc(C(=O)Nc3c(C)cccc3Cl)s2)cc(N2CCN(CCO)CC2)n1 [Dasatinib, N-(2-Chloro-6-methylphenyl)-2-[[6-[4-(2-hydroxyethyl)-1-piperazinyl]-2-methyl-4-pyrimidinyl]amino]-5-thiazolecarboxamide]",6.05,17,–
"Cc1cn(-c2cc(NC(=O)c3ccc(C)c(Nc4nccc(-c5cccnc5)n4)c3)cc(C(F)(F)F)c2)cn1 [Nilotinib, 4-Methyl-N-[3-(4-methyl-1H-imidazol-1-yl)-5-(trifluoromethyl)phenyl]-3-[[4-(3-pyridinyl)-2-pyrimidinyl]amino]-benzamide]",13.1,-9.36,"Combination Index (CI) with rapamycin, WT [2]: 0.58 ± 0.15; IC50 [3]: 3.61 ± 0.03 µM; IC50 [4]: 4.98 ± 0.9 µM"

Compound,inhibition at 20 µM [3] [%],inhibition at 20 µM [4] [%],other results
CC[C@@]1(O)C(=O)OCc2c1cc1n(c2=O)Cc2cc3c(CN(C)C)c(O)ccc3nc2-1 [Topotecan hydrochloride],68.4,63.8,–
CCc1c2c(nc3ccc(OC(=O)N4CCC(N5CCCCC5)CC4)cc13)-c1cc3c(c(=O)n1C2)COC(=O)[C@]3(O)CC [Irinotecan hydrochloride],22.3,19.4,–
O=P(O)(O)C(O)(Cn1ccnc1)P(=O)(O)O [Zoledronic acid],-0.37,-11.7,–
Cn1nnc2c(C(N)=O)ncn2c1=O [Temozolomide],-1.03,0.12,–
Cc1ccc(Nc2nccc(N(C)c3ccc4c(C)n(C)nc4c3)n2)cc1S(N)(=O)=O [Pazopanib hydrochloride],45.3,31.8,–
CNC(=O)c1cc(Oc2ccc(NC(=O)Nc3ccc(Cl)c(C(F)(F)F)c3)c(F)c2)ccn1 [Regorafenib],35.4,34.7,–
"CO[C@H]1C[C@@H]2CC[C@@H](C)[C@@](O)(O2)C(=O)C(=O)N2CCCC[C@H]2C(=O)O[C@H]([C@H](C)C[C@@H]2CC[C@@H](OCCO)[C@H](OC)C2)CC(=O)[C@H](C)/C=C(\C)[C@@H](O)[C@@H](OC)C(=O)[C@H](C)C[C@H](C)/C=C/C=C/C=C/1C [Everolimus, 42-O-(2-Hydroxyethyl)-rapamycin]",50.5,28,proliferation inhibition of HUVEC-TIE2-L914F relative to rapamycin [1]: same effectiveness as rapamycin; IC50 [4]: < 0.03 µM
O=C(CCBr)N1CCN(C(=O)CCBr)CC1 [Pipobroman],10.1,3.55,–
O=NN(CCCl)C(=O)NCCCl [Carmustine],7.11,3.32,–
CN(C)c1nc(N(C)C)nc(N(C)C)n1 [Altretamine],-3.57,-0.88,–
O=C(O)CCCc1ccc(N(CCCl)CCCl)cc1 [Chlorambucil],10.8,3.69,–
CC(=O)Nc1cccc(-n2c(=O)n(C3CC3)c(=O)c3c(Nc4ccc(I)cc4F)n(C)c(=O)c(C)c32)c1 [Trametinib],40.2,-0.64,–
C[C@]12CC[C@@H]3c4ccc(O)cc4C[C@@H](CCCCCCCCC[S+]([O-])CCCC(F)(F)C(F)(F)F)[C@H]3[C@@H]1CC[C@@H]2O (some centres unmarked) [Fulvestrant],3.89,-2.52,–
COc1nc(N)nc2c1ncn2[C@@H]1O[C@H](CO)[C@@H](O)[C@@H]1O [Nelarabine],3,-0.28,–
CCCCCOC(=O)Nc1nc(=O)n([C@@H]2O[C@H](C)[C@@H](O)[C@H]2O)cc1F [Capecitabine],1.06,-1.49,–
O=C(/C=C/c1cccc(S(=O)(=O)Nc2ccccc2)c1)NO [Belinostat],54.6,37.3,–
CS(=O)(=O)OCCCCOS(C)(=O)=O [Busulfan],0.26,0.46,–
C=C1C[C@@H]2[C@H](CC[C@]3(C)C(=O)CC[C@@H]23)[C@@]2(C)C=CC(=O)C=C12 [Exemestane],6.56,-4.29,–
CNC(=O)c1cc(Oc2ccc(NC(=O)Nc3ccc(Cl)c(C(F)(F)F)c3)cc2)ccn1 [Sorafenib],49.6,8.77,IC50 [3]: > 10 µM; IC50 [4]: > 10 µM
CCCS(=O)(=O)Nc1ccc(F)c(C(=O)c2c[nH]c3ncc(-c4ccc(Cl)cc4)cc23)c1F [Vemurafenib],0.7,-4.4,–
CCC1=C[C@@H]2CN(C1)Cc1c([nH]c3ccccc13)[C@@](C(=O)OC)(c1cc3c(cc1OC)N(C)[C@H]1[C@@](O)(C(=O)OC)[C@H](OC(C)=O)[C@]4(CC)C=CCN5CC[C@]31[C@@H]54)C2 [Vinorelbine tartrate],35.3,36,–
Clc1ccc(C(c2ccccc2Cl)C(Cl)Cl)cc1 (centres unmarked) [Mitotane],4.55,-0.12,–
CC(=O)[C@]1(O)Cc2c(O)c3c(c(O)c2[C@@H](O[C@H]2C[C@H](N)[C@H](O)[C@H](C)O2)C1)C(=O)c1ccccc1C3=O [Idarubicin hydrochloride],3.36,-4.82,–
CO[C@@]12[C@H](COC(N)=O)C3=C(C(=O)C(C)=C(N)C3=O)N1C[C@@H]1N[C@@H]12 [Mitomycin],69.4,53.5,–
